Drawing on paper PMC4587736, this text covers binding for 3 molecules.

No constants are given. Whether binding was seen depends on the method and setting. For some assays here: In cells and extracts the contact can be indirect. Some binding calls cover weakened binding; strength is not graded here. Sequences can lack the tags named with a protein.

Assay [1] deals with T1, N-terminally HA-tagged PRO11 (pHA11) (Sordaria macrospora) (UniProt Q70M86).
T1 sequence: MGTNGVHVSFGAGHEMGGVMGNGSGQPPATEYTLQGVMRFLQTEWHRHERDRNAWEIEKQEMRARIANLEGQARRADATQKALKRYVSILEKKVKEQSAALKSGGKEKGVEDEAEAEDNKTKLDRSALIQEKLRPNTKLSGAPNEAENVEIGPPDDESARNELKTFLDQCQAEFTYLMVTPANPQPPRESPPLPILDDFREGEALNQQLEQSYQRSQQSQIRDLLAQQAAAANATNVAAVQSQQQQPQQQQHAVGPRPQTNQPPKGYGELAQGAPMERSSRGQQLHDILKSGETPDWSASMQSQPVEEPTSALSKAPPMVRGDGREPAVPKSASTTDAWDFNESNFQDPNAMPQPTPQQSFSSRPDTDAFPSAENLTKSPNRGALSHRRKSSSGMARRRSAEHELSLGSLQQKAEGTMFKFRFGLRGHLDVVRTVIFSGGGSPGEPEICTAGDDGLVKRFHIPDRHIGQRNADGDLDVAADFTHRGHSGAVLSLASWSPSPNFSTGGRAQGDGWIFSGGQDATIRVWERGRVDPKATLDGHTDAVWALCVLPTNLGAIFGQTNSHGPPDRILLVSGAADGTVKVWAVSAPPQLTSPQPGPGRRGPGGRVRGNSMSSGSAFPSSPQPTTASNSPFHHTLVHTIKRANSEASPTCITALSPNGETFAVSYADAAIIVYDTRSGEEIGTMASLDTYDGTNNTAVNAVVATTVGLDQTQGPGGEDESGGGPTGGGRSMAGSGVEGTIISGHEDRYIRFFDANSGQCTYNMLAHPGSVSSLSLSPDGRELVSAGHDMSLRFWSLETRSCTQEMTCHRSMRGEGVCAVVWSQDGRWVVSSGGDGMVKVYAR
Put plainly: co-IP; cell extracts of S. macrospora co-expressing HA-PRO11 and FLAG-SmKIN3; with thiol crosslinker BMH 0.2 mM, 2 h at 4°C, stopped with 25 mM DTT; IP-HA and IP-FLAG, Western blot. A general note: In western blotting, separated proteins are transferred to a membrane and probed.

Assay [2] concerns the target T2, SmKIN3 fused to the GAL4 DNA-binding domain (pBD-SmKIN3) (Sordaria macrospora) (UniProt F7VYS5).
T2 sequence: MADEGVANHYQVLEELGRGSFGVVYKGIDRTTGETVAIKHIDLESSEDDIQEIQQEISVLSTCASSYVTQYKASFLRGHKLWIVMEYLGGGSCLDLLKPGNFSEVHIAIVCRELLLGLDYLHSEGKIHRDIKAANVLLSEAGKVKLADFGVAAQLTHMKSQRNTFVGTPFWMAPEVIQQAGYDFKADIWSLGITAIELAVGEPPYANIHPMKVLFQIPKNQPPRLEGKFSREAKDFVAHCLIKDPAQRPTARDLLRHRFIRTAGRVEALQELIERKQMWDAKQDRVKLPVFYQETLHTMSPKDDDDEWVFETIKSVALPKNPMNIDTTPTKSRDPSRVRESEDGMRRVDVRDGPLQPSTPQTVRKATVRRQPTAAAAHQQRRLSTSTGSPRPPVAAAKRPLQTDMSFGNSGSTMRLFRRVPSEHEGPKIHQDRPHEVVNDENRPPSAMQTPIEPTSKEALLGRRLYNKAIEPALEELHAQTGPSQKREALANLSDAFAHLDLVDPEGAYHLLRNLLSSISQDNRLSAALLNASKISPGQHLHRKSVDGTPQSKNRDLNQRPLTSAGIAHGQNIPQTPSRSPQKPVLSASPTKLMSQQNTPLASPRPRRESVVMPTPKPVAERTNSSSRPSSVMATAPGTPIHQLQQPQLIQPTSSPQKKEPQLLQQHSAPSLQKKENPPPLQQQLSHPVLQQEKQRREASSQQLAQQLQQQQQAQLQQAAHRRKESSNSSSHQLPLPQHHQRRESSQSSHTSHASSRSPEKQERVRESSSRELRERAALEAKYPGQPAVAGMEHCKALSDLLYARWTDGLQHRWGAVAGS
Put plainly: two-hybrid; Matchmaker two-hybrid system 3; kinases fused to GAL4 binding domain (pGBKT7, Y187), partners fused to GAL4 activation domain (pGADT7, AH109); mated diploids, drop plate assay on SD without leu, trp and ade.

The target of assay [3] is T3, SmKIN24 fused to the GAL4 DNA-binding domain (pBD-SmKIN24) (Sordaria macrospora) (UniProt F7VQV9).
T3 sequence: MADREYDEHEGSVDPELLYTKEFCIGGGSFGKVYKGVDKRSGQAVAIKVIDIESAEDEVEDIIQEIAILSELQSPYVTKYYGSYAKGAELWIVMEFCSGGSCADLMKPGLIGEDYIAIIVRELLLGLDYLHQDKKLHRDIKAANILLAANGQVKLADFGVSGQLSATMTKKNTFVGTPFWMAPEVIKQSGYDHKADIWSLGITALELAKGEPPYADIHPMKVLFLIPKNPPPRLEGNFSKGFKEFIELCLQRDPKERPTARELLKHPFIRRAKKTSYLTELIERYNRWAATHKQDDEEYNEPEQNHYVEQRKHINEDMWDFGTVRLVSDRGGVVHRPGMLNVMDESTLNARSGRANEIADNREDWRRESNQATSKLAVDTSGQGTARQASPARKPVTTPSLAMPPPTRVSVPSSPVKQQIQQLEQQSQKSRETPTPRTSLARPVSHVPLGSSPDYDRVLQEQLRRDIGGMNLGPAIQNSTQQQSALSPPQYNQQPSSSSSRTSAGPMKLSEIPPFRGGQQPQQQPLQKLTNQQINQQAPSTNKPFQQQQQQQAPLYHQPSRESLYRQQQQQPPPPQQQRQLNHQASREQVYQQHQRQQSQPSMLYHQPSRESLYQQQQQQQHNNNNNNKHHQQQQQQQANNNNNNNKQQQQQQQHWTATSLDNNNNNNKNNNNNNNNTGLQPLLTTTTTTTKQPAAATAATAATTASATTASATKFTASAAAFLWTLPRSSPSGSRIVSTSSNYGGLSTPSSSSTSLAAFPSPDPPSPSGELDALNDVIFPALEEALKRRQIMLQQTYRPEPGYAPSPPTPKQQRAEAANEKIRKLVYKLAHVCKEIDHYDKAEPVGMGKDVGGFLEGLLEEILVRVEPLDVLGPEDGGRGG
The description is as above.

Assay [4] has as its target T4, N-terminally FLAG-tagged SmKIN3 (pFLAG-SmKIN3) (Sordaria macrospora) (UniProt F7VYS5).
T4 sequence: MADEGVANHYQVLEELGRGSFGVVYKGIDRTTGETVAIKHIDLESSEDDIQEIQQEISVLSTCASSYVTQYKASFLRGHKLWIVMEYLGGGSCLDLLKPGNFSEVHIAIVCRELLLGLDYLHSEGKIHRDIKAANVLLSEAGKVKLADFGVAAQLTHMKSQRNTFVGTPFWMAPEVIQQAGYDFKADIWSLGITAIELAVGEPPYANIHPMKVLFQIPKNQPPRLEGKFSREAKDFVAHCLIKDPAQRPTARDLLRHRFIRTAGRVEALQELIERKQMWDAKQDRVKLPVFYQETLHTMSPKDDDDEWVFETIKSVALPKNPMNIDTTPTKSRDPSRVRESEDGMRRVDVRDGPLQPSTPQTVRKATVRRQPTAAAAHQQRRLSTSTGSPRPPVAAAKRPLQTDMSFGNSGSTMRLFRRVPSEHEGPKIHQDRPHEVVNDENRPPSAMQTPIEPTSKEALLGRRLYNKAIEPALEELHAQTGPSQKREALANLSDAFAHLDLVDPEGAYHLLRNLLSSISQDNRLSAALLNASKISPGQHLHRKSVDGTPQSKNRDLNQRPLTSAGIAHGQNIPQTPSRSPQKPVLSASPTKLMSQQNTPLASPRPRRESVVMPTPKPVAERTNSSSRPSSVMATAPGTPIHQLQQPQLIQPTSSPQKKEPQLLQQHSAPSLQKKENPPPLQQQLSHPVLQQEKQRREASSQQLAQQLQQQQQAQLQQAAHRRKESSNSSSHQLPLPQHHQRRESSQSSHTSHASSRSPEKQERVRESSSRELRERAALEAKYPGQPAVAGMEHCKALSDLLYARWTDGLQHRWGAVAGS
The assay is described as follows: co-IP; cell extracts of S. macrospora co-expressing HA-PRO11 and FLAG-SmKIN3; with thiol crosslinker BMH 0.2 mM, 2 h at 4°C, stopped with 25 mM DTT; IP-HA and IP-FLAG, Western blot.

Assay [5] concerns the target T4, N-terminally FLAG-tagged SmKIN3 (pFLAG-SmKIN3) (Sordaria macrospora). The assay is described as follows: co-IP; cell extracts of S. macrospora co-expressing HA-PRO11 and FLAG-SmKIN3; without crosslinker added; Western blot.

B1: N-terminally FLAG-tagged SmKIN3 (pFLAG-SmKIN3) (enzyme, UniProt F7VYS5 1-820)
chain: MADEGVANHYQVLEELGRGSFGVVYKGIDRTTGETVAIKHIDLESSEDDIQEIQQEISVLSTCASSYVTQYKASFLRGHKLWIVMEYLGGGSCLDLLKPGNFSEVHIAIVCRELLLGLDYLHSEGKIHRDIKAANVLLSEAGKVKLADFGVAAQLTHMKSQRNTFVGTPFWMAPEVIQQAGYDFKADIWSLGITAIELAVGEPPYANIHPMKVLFQIPKNQPPRLEGKFSREAKDFVAHCLIKDPAQRPTARDLLRHRFIRTAGRVEALQELIERKQMWDAKQDRVKLPVFYQETLHTMSPKDDDDEWVFETIKSVALPKNPMNIDTTPTKSRDPSRVRESEDGMRRVDVRDGPLQPSTPQTVRKATVRRQPTAAAAHQQRRLSTSTGSPRPPVAAAKRPLQTDMSFGNSGSTMRLFRRVPSEHEGPKIHQDRPHEVVNDENRPPSAMQTPIEPTSKEALLGRRLYNKAIEPALEELHAQTGPSQKREALANLSDAFAHLDLVDPEGAYHLLRNLLSSISQDNRLSAALLNASKISPGQHLHRKSVDGTPQSKNRDLNQRPLTSAGIAHGQNIPQTPSRSPQKPVLSASPTKLMSQQNTPLASPRPRRESVVMPTPKPVAERTNSSSRPSSVMATAPGTPIHQLQQPQLIQPTSSPQKKEPQLLQQHSAPSLQKKENPPPLQQQLSHPVLQQEKQRREASSQQLAQQLQQQQQAQLQQAAHRRKESSNSSSHQLPLPQHHQRRESSQSSHTSHASSRSPEKQERVRESSSRELRERAALEAKYPGQPAVAGMEHCKALSDLLYARWTDGLQHRWGAVAGS
For B1, the binding result in assay [1] is given as “binds weakly”.

B2: full-length PRO11 fused to the GAL4 activation domain (pAD11FL) (protein, UniProt Q70M86 1-845)
chain: MGTNGVHVSFGAGHEMGGVMGNGSGQPPATEYTLQGVMRFLQTEWHRHERDRNAWEIEKQEMRARIANLEGQARRADATQKALKRYVSILEKKVKEQSAALKSGGKEKGVEDEAEAEDNKTKLDRSALIQEKLRPNTKLSGAPNEAENVEIGPPDDESARNELKTFLDQCQAEFTYLMVTPANPQPPRESPPLPILDDFREGEALNQQLEQSYQRSQQSQIRDLLAQQAAAANATNVAAVQSQQQQPQQQQHAVGPRPQTNQPPKGYGELAQGAPMERSSRGQQLHDILKSGETPDWSASMQSQPVEEPTSALSKAPPMVRGDGREPAVPKSASTTDAWDFNESNFQDPNAMPQPTPQQSFSSRPDTDAFPSAENLTKSPNRGALSHRRKSSSGMARRRSAEHELSLGSLQQKAEGTMFKFRFGLRGHLDVVRTVIFSGGGSPGEPEICTAGDDGLVKRFHIPDRHIGQRNADGDLDVAADFTHRGHSGAVLSLASWSPSPNFSTGGRAQGDGWIFSGGQDATIRVWERGRVDPKATLDGHTDAVWALCVLPTNLGAIFGQTNSHGPPDRILLVSGAADGTVKVWAVSAPPQLTSPQPGPGRRGPGGRVRGNSMSSGSAFPSSPQPTTASNSPFHHTLVHTIKRANSEASPTCITALSPNGETFAVSYADAAIIVYDTRSGEEIGTMASLDTYDGTNNTAVNAVVATTVGLDQTQGPGGEDESGGGPTGGGRSMAGSGVEGTIISGHEDRYIRFFDANSGQCTYNMLAHPGSVSSLSLSPDGRELVSAGHDMSLRFWSLETRSCTQEMTCHRSMRGEGVCAVVWSQDGRWVVSSGGDGMVKVYAR
For B2, the binding entry in assay [2] and in assay [3] was “binds” in each case.

B3: N-terminally HA-tagged PRO11 (pHA11) (protein, UniProt Q70M86 1-845)
chain: MGTNGVHVSFGAGHEMGGVMGNGSGQPPATEYTLQGVMRFLQTEWHRHERDRNAWEIEKQEMRARIANLEGQARRADATQKALKRYVSILEKKVKEQSAALKSGGKEKGVEDEAEAEDNKTKLDRSALIQEKLRPNTKLSGAPNEAENVEIGPPDDESARNELKTFLDQCQAEFTYLMVTPANPQPPRESPPLPILDDFREGEALNQQLEQSYQRSQQSQIRDLLAQQAAAANATNVAAVQSQQQQPQQQQHAVGPRPQTNQPPKGYGELAQGAPMERSSRGQQLHDILKSGETPDWSASMQSQPVEEPTSALSKAPPMVRGDGREPAVPKSASTTDAWDFNESNFQDPNAMPQPTPQQSFSSRPDTDAFPSAENLTKSPNRGALSHRRKSSSGMARRRSAEHELSLGSLQQKAEGTMFKFRFGLRGHLDVVRTVIFSGGGSPGEPEICTAGDDGLVKRFHIPDRHIGQRNADGDLDVAADFTHRGHSGAVLSLASWSPSPNFSTGGRAQGDGWIFSGGQDATIRVWERGRVDPKATLDGHTDAVWALCVLPTNLGAIFGQTNSHGPPDRILLVSGAADGTVKVWAVSAPPQLTSPQPGPGRRGPGGRVRGNSMSSGSAFPSSPQPTTASNSPFHHTLVHTIKRANSEASPTCITALSPNGETFAVSYADAAIIVYDTRSGEEIGTMASLDTYDGTNNTAVNAVVATTVGLDQTQGPGGEDESGGGPTGGGRSMAGSGVEGTIISGHEDRYIRFFDANSGQCTYNMLAHPGSVSSLSLSPDGRELVSAGHDMSLRFWSLETRSCTQEMTCHRSMRGEGVCAVVWSQDGRWVVSSGGDGMVKVYAR
As to B3, the values for the binding result in assay [4] and in assay [5] were “binds weakly” and “no binding (condition: without crosslinker added)”, respectively.
